± gives the standard deviation of the averaged measurements. Over roughly 33,000 sequences, “E-score (dimensionless, -0.5 to 0.5)” has its median near -0.046; the highest 2% begin near 0.36. Some of the results follow.
What follows are sequences tested on T1, SpTbr T-box DNA-binding domain (GST fusion) (assay: PBM E-score of 8-mer (E-score (dimensionless, -0.5 to 0.5)); Tbr is Tbrain of the sea star Patiria miniata (Pm) or the sea urchin Strongylocentrotus purpuratus (Sp); higher = stronger binding preference; most listed sequences are background and not binding sites). Details: the construct has about 5 more residues each side.
T1 sequence: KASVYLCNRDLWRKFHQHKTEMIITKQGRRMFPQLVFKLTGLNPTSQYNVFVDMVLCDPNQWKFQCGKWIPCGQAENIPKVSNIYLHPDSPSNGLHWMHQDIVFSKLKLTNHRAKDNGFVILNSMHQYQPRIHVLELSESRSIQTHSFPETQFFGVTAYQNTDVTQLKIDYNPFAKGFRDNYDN
Outline: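 Using the Universal PBM Analysis Suite, every ungapped 8-mer received an enrichment E-score averaged over duplicate arrays. Probe intensities came from double-stranded Universal Agilent oligonucleotide arrays incubated with 200 nM GST-fused Tbr T-box DNA-binding domain in PBS (pH 7.5). That protein was expressed in BL21 E. coli at 20 °C and purified by glutathione affinity chromatography.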

Sequence	PBM E-score of 8-mer
CCTTATAC	-0.12 ± 0.031
CAGTCACG	0.169 ± 0.03
CACACGCA	0.336 ± 0.019
CACACCGG	0.175 ± 0.059
AAATATTT	-0.0371 ± 0.088
CTGCTGGC	0.00894 ± 0.062
ACCGTCCG	-0.0723 ± 0.023
AATTTTCA	-0.0285 ± 0.04
GACACTCA	0.306 ± 0.024
CCACTCTA	-0.0297 ± 0.03
ACTCCACT	-0.0495 ± 0.03
CTGCCAGA	-0.12 ± 0.09
ACAGCTTG	0.066 ± 0.049
TAATGCGA	0.0911 ± 0.011
CTTTCACC	0.0179 ± 0.03
ATATACCG	-0.0559 ± 0.021
CGCAGCTA	0.0892 ± 0.037
AGTACACC	0.0392 ± 0.046
TCCTACGA	-0.0908 ± 0.04
TTCCCGAA	-0.122 ± 0.0038
AAGCTCTC	-0.0414 ± 0.0074
AGTGGGGA	0.212 ± 0.025
ATATTTTG	-0.077 ± 0.034
ACTGTGTA	0.0693 ± 0.0096

Sequence	PBM E-score of 8-mer
AGTTACTC	0.0155 ± 0.023
ACGCTATA	-0.013 ± 0.012
ATATATAA	-0.0111 ± 0.082
AAATTGAC	0.118 ± 0.026
CCTTTTAG	0.0506 ± 0.044
CCCGTATA	0.0364 ± 0.069
ATGTCTCA	-0.0324 ± 0.021
ATGCGAGC	0.0862 ± 0.026
ACTCTGCT	0.0159 ± 0.0053
CCACACTC	0.374 ± 0.015
GCACGTAC	0.203 ± 0.0061
ACACTTTC	0.402 ± 0.027
ATACAAAA	-0.141 ± 0.011
GCTGTGTA	-0.0634 ± 0.0096
CTCTAAGC	0.0354 ± 0.02
ACAAAGAC	-0.0872 ± 0.0088
CATAGGGA	-0.0928 ± 0.051
CCCCCTCA	-0.05 ± 0.015
CCGAATAG	-0.0447 ± 0.023
CATCAGTC	-0.185 ± 0.051
ACCTAGGC	0.0633 ± 0.063
ACGCAGTG	0.0522 ± 0.0037
ACCCCAAC	0.1502 ± 0.00033
ACGTGGAT	-0.0439 ± 0.063

Sequence	PBM E-score of 8-mer
ACGGTACC	-0.0547 ± 0.055
ATGTACAA	-0.233 ± 0.066
ACAATATA	0.178 ± 0.0078
CTATGCAA	-0.0745 ± 0.007
CTCCAGTA	-0.201 ± 0.032
CGCTCCTC	0.126 ± 0.0045
TAACCAGA	-0.055 ± 0.015
ACTGCCAT	-0.0515 ± 0.043
CGTTCCGA	-0.0562 ± 0.0032
ACCCTACG	0.015 ± 0.025
AGTCATAC	-0.0559 ± 0.00085
ACCGGGAT	-0.0571 ± 0.0096
GCACATCC	0.137 ± 0.0032
GTCGCAAA	0.0958 ± 0.038
ATCCTCTC	-0.0284 ± 0.025
GGGAGGCA	-0.156 ± 0.057
ACAAAGAT	0.0358 ± 0.005
AGGCTGTA	-0.0947 ± 0.068
CGTACCCC	-0.144 ± 0.057
ACATTATC	-0.00408 ± 0.066
AATTCCTA	-0.301 ± 0.025
CTAGGCAG	-0.154 ± 0.0063
CCACAACA	0.234 ± 0.015
ACACCGGT	0.246 ± 0.055

Sequence	PBM E-score of 8-mer
ACATGGAA	-0.0968 ± 0.046
GAGTCACA	0.295 ± 0.022
CGACCAGC	0.0453 ± 0.1
AGTCTTAA	-0.229 ± 0.087
CCATAACA	-0.0336 ± 0.029
ATTTCTAA	-0.0565 ± 0.021
AGCGCGAC	0.253 ± 0.026
CCCAGAAC	-0.114 ± 0.022
ATTGGGTC	-0.0691 ± 0.04
ACCGCTCG	-0.107 ± 0.044
CTAGCTAA	0.041 ± 0.025
GTTGAGTA	-0.178 ± 0.034
AATCCTAC	-0.307 ± 0.011
CATCAAGC	0.0303 ± 0.0029
AGTCCAGC	-0.237 ± 0.042
ATTCGGCA	-0.00275 ± 0.039
CGATTCCA	-0.0469 ± 0.074
AACATTCC	-0.147 ± 0.026
AACCTTTG	-0.131 ± 0.041
GGCCGCCC	-0.0386 ± 0.049
GGTTAACC	-0.254 ± 0.1
AAGCGTCA	0.357 ± 0.0055

Source: the supplement of paper PMC4166925
